Residue numbers refer to the chain shown, from its start. This is one part of the list.

First the molecules themselves.
T1: RBFOX1 RRM RbFoxmut (Fox-RRM*) (Homo sapiens, UniProt Q9NWB1 109-208, R118D;E147R;N151S;E152T)
T1 sequence: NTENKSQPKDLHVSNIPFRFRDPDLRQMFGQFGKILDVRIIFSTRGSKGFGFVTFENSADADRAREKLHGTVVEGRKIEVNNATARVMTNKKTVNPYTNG

B1: CUCAAGG (DNA:RNA)
RNA: GGGAGACCGGAAUUCAGAUUGUCCCUCAAGGUUAAAUCCCGUCGUAGCCACCA
DNA 1: CAATCTGAATTCCGGTCTCCC
DNA 2: TGGTGGCTACGACGGGATT
B2: AUAGGCA (DNA:RNA)
RNA: B1 RNA with C25A, C27A, A28G, A29G, G30C, G31A
DNA 1: CAATCTGAATTCCGGTCTCCC
DNA 2: TGGTGGCTACGACGGGATT
B3: AGAGCGC (DNA:RNA)
RNA: B1 RNA with C25A, U26G, C27A, A28G, A29C, G31C
DNA 1: CAATCTGAATTCCGGTCTCCC
DNA 2: TGGTGGCTACGACGGGATT
B4: GGCAGUA (DNA:RNA)
RNA: B1 RNA with C25G, U26G, A29G, G30U, G31A
DNA 1: CAATCTGAATTCCGGTCTCCC
DNA 2: TGGTGGCTACGACGGGATT
B5: GGUCCGU (DNA:RNA)
RNA: B1 RNA with C25G, U26G, C27U, A28C, A29C, G31U
DNA 1: CAATCTGAATTCCGGTCTCCC
DNA 2: TGGTGGCTACGACGGGATT
B6: UAAUAGA (DNA:RNA)
RNA: B1 RNA with C25U, U26A, C27A, A28U, G31A
DNA 1: CAATCTGAATTCCGGTCTCCC
DNA 2: TGGTGGCTACGACGGGATT
B7: CACAGCA (DNA:RNA)
RNA: B1 RNA with U26A, A29G, G30C, G31A
DNA 1: CAATCTGAATTCCGGTCTCCC
DNA 2: TGGTGGCTACGACGGGATT
B8: UUUGAAU (DNA:RNA)
RNA: B1 RNA with C25U, C27U, A28G, G30A, G31U
DNA 1: CAATCTGAATTCCGGTCTCCC
DNA 2: TGGTGGCTACGACGGGATT
B9: CACAAAC (DNA:RNA)
RNA: B1 RNA with U26A, G30A, G31C
DNA 1: CAATCTGAATTCCGGTCTCCC
DNA 2: TGGTGGCTACGACGGGATT
B10: UACAUCA (DNA:RNA)
RNA: B1 RNA with C25U, U26A, A29U, G30C, G31A
DNA 1: CAATCTGAATTCCGGTCTCCC
DNA 2: TGGTGGCTACGACGGGATT
B11: CUAAAUA (DNA:RNA)
RNA: B1 RNA with C27A, G30U, G31A
DNA 1: CAATCTGAATTCCGGTCTCCC
DNA 2: TGGTGGCTACGACGGGATT
B12: AAUUAGC (DNA:RNA)
RNA: B1 RNA with C25A, U26A, C27U, A28U, G31C
DNA 1: CAATCTGAATTCCGGTCTCCC
DNA 2: TGGTGGCTACGACGGGATT
B13: UAUUUUG (DNA:RNA)
RNA: B1 RNA with C25U, U26A, C27U, A28U, A29U, G30U
DNA 1: CAATCTGAATTCCGGTCTCCC
DNA 2: TGGTGGCTACGACGGGATT
B14: UUAAUAU (DNA:RNA)
RNA: B1 RNA with C25U, C27A, A29U, G30A, G31U
DNA 1: CAATCTGAATTCCGGTCTCCC
DNA 2: TGGTGGCTACGACGGGATT
B15: CGCUGAA (DNA:RNA)
RNA: B1 RNA with U26G, A28U, A29G, G30A, G31A
DNA 1: CAATCTGAATTCCGGTCTCCC
DNA 2: TGGTGGCTACGACGGGATT
B16: GGCUAGU (DNA:RNA)
RNA: B1 RNA with C25G, U26G, A28U, G31U
DNA 1: CAATCTGAATTCCGGTCTCCC
DNA 2: TGGTGGCTACGACGGGATT
B17: GAUCAGG (DNA:RNA)
RNA: B1 RNA with C25G, U26A, C27U, A28C
DNA 1: CAATCTGAATTCCGGTCTCCC
DNA 2: TGGTGGCTACGACGGGATT
B18: AUACCUU (DNA:RNA)
RNA: B1 RNA with C25A, C27A, A28C, A29C, G30U, G31U
DNA 1: CAATCTGAATTCCGGTCTCCC
DNA 2: TGGTGGCTACGACGGGATT
B19: UUCAGCC (DNA:RNA)
RNA: B1 RNA with C25U, A29G, G30C, G31C
DNA 1: CAATCTGAATTCCGGTCTCCC
DNA 2: TGGTGGCTACGACGGGATT
B20: CUUUCGG (DNA:RNA)
RNA: B1 RNA with C27U, A28U, A29C
DNA 1: CAATCTGAATTCCGGTCTCCC
DNA 2: TGGTGGCTACGACGGGATT

For this experiment, the target named is T1, RBFOX1 RRM RbFoxmut (Fox-RRM*). The experiment in a line: EMSA; HiTS-Eq, 1 nM pool, 10 min; buffer printed only for the single-RNA assays: 10 mM Tris pH 7.5, 150 mM NaCl, 3.4 mM EDTA, 0.001% NP-40, 30 C. Conditions: tags: His6 N-terminal (pET28a); label: 5' 32P. The method, boiled down: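 Purified RbFox RRM, wild type or mutant, was incubated for 10 min in 50 µL with 1 nM of a 5′-radiolabelled RNA pool carrying 7 randomized nucleotides, whose flanks were annealed to DNA oligonucleotides, over a series of increasing protein concentrations. Unbound RNA was resolved on 8% native PAGE, cut out, reverse-transcribed, barcoded by PCR and sequenced on an Illumina HiSeq 2500. Relative association constants were derived from changes in read counts for each RNA species versus the control reaction and normalised to the cognate motif.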
In general terms: In EMSA bound probe runs differently from free probe, usually more slowly.
As for B1, the binding signal is 0.0692 KA relative to UGCAUGU.

B2: the binding signal is 0.115 KA relative to UGCAUGU.

Turning to B3, the binding signal is 0.103 KA relative to UGCAUGU.

With B4, the binding signal was 0.114 KA relative to UGCAUGU.

Regarding B5, the binding signal was 0.136 KA relative to UGCAUGU.

Turning to B6, the binding signal was 0.0775 KA relative to UGCAUGU.

As for B7, the binding signal is 0.123 KA relative to UGCAUGU.

As to B8, the binding signal is 0.0897 KA relative to UGCAUGU.

Consider B9, for which the binding signal was 0.0493 KA relative to UGCAUGU.

B10: the binding signal is 0.0646 KA relative to UGCAUGU.

On to B11, for which the binding signal was 0.111 KA relative to UGCAUGU.

B12: the binding signal was 0.088 KA relative to UGCAUGU.

For the molecule B13, the binding signal was 0.0891 KA relative to UGCAUGU.

Take B14: the binding signal was 0.0923 KA relative to UGCAUGU.

As for B15, the binding signal is 0.102 KA relative to UGCAUGU.

With B16, the binding signal is 0.107 KA relative to UGCAUGU.

As to B17, the binding signal is 0.0758 KA relative to UGCAUGU.

As for B18, the binding signal was 0.094 KA relative to UGCAUGU.

In the case of B19, the binding signal was 0.113 KA relative to UGCAUGU.

As for B20, the binding signal is 0.0623 KA relative to UGCAUGU.

The record behind these values is publication PMC9911399, “Two distinct binding modes provide the RNA-binding protein RbFox with extraordinary sequence specificity”.
